Test results taken from PubChem BioAssay AID2147 (National Center for Advancing Translational Sciences (NCATS), 2009).
Screen size: about 230,000 compounds; about 3,600 (1.6%) were called active. The shares of active, inactive and inconclusive entries below differ from those in the screen. Calls follow the shape of the dose curve; as a rule, active = well fitted inhibition curve with a large enough effect (not every such curve was filed as active); inconclusive = small, poorly fitted or top-dose-only effect, or another doubt; inactive = no such curve, though single readings can be large or run the other way. Potencies of inconclusive entries are doubtful fits and often do not repeat.

Biological target: Lysine-specific demethylase 4E (Homo sapiens) (UniProt B2RXH2)
Assay: qHTS Assay for Inhibitors of Human Jumonji Domain Containing 2E (JMJD2E)
Conditions: JMJD2E catalytic domain, FDH-coupled NADH fluorescence (FDH is formaldehyde dehydrogenase); series mostly up to 57.1 µM
Also: nearly all actives have a fitted effect of over 50% in size.
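For activity change, negative = inhibition in this document: 0% = wells with enzyme and -100% = buffer wells without enzyme.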
Potency is read from the fitted curve at half-maximal effect; tags tell the direction and shape of the fitted curve.

UniProt B2RXH2, sequence (B2RXH2 whole entry, looked up, the tested form may be a part): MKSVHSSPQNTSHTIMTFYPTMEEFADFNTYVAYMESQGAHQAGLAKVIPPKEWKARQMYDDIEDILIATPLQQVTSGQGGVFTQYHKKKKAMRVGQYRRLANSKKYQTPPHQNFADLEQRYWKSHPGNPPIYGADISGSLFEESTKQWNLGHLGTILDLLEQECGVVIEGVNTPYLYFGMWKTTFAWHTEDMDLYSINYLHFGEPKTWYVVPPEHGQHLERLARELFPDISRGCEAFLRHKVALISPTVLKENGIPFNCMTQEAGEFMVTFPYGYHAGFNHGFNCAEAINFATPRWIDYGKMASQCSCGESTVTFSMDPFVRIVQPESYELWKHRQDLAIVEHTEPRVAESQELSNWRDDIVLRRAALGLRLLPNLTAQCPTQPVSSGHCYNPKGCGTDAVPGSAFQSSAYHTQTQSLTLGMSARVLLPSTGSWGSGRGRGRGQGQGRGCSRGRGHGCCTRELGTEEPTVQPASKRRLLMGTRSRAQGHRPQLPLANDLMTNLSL

| Structure (SMILES) | Potency | activity change, negative = inhibition |
| --- | --- | --- |
| COc1ccc(C(=O)c2ccc(N3CCOCC3)cc2)c(OC)c1 | inconclusive: 5.62 µM [inhibitor, single point] | – |
| Cc1ccc(C2C3=C(CC(C)(C)CC3=O)N(CCN3CCOCC3)C3=C2C(=O)CC(C)(C)C3)cc1 | inconclusive: 28.2 µM [inhibitor, partial curve] | – |
| CC(C)(C)C1C/C(=C/c2ccccn2)C(=O)/C(=C/c2ccccn2)C1 (stereo not drawn) | inactive | – |
| CC1=C(C#N)C(=O)N(C2CCS(=O)(=O)C2)C(=O)/C1=C\c1ccco1 (stereo not drawn) | inconclusive: 35.5 µM [inhibitor, single point] | – |
| CCOc1ccccc1C(=O)NN1C(=O)CCC1=O | inconclusive: 22.4 µM [inhibitor, partial curve] | – |
| COc1ccc(O)c(-c2[nH]ncc2C(=O)c2ccccc2C)c1 | inactive | – |
| O=C(COc1cccc(C(F)(F)F)c1)N1CCN(c2ccc(O)cc2)CC1 | inconclusive: 17.8 µM [inhibitor, partial curve] | – |
| N#Cc1nc(-c2ccccc2)oc1NCc1ccco1 | inconclusive: 31.6 µM [inhibitor, partial curve] | – |
| Cc1coc2cc3oc(=O)c(Cc4ccccc4)c(C)c3cc12 | inconclusive: 12.6 µM [inhibitor, partial curve] | – |
| CCN(CC)S(=O)(=O)c1cccc(-c2cn3cc(C)ccc3n2)c1 | inconclusive: 25.1 µM [inhibitor, single point] | – |
| CN(C)/C=C/c1onc(-c2ccccc2Cl)c1C#N | inconclusive: 35.5 µM [inhibitor, single point] | – |
| COCC(=O)N1CCc2nc(COc3ccccc3)c3c(c2C1)CO[C@@H](C)C3 | – | inactive: 11.9% [at 11.4 µM] |
| C/C(CC(=O)N1CCN(C=O)CC1)=N\NC(=O)c1cccc([N+](=O)[O-])c1 | inactive | – |
| N#Cc1nc(Cl)c(Cl)c(NN)c1Cl | inconclusive: 35.5 µM [inhibitor, single point] | – |
| O=C(Nc1ccccc1)C1=C(N2CCOCC2)/C(=C/c2cccnc2)CC1 | inconclusive: 35.5 µM [inhibitor, single point] | – |
| CC(=O)Oc1ccccc1C(=O)Oc1ccccc1C(=O)O | inconclusive: 31.6 µM [inhibitor, partial curve] | – |
| Cc1ccc(NCc2nnc3n2CCCCC3)cc1 | inconclusive: 35.5 µM [inhibitor, single point] | – |
| O=c1[nH]c(CN2CCCCC2)nc2ccccc12 | inactive | – |
| c1csc(-c2nn3c(-c4ccncc4)nnc3s2)c1 | inactive | – |
| CC(=O)Nc1ccc(S(=O)(=O)NNC(=O)c2cc3c4ccccc4n(C)c3s2)cc1 | inconclusive: 39.8 µM [inhibitor, single point] | – |
| Cc1ccc(-c2nnc(Nc3ccc(C(=O)N(C)C)cc3)c3ccccc23)cc1S(=O)(=O)NC(C)(C)CO | inconclusive: 31.6 µM [inhibitor, single point] | – |
| CCOC(=O)c1ccc(Nc2ncnc3nc[nH]c23)cc1 | inconclusive: 29.9 µM [inhibitor, single point] | – |
| COc1cc([C@@H]2c3cc4c(cc3[C@@H](NC3CCN(Cc5ccccc5)CC3)[C@H]3COC(=O)[C@H]23)OCO4)cc(OC)c1O | inconclusive: 39.8 µM [inhibitor, single point] | – |
| COc1cccc(C(=O)N2CCCc3ccccc32)c1 | inactive | – |
| CN1CC=C2C(C#N)=C(N)C(C#N)(C#N)[C@H](c3ccoc3)[C@H]2C1 | inconclusive: 28.2 µM [inhibitor, partial curve] | – |

| Structure (SMILES) | Potency | activity change, negative = inhibition |
| --- | --- | --- |
| O=Cc1ccc(OC2OCCOC2Oc2ccc(C=O)cc2)cc1 (stereo not drawn) | inconclusive: 28.2 µM [inhibitor, single point] | – |
| CCN1/C(=C\c2ccc3cc(C)ccc3[n+]2CC)Sc2cc(C)c(C)cc21 | inconclusive: 11.2 µM [inhibitor, partial curve] | – |
| COc1cccc(CN(C)CC(=O)Nc2sc3c(c2C#N)CCC3)c1OC | inconclusive: 39.8 µM [inhibitor, partial curve, poor fit] | – |
| Cc1ccc(C)c(/C=C/C(=O)c2ccccc(=O)c2O)c1 | active: 22.4 µM | – |
| Nc1ccc2nn(-c3ccc(Cl)cc3)nc2c1 | inconclusive: 2.82 µM [inhibitor, partial curve] | – |
| C=CCc1cccc2cc(C(=O)OCC(=O)c3ccccc3)c(=O)oc12 | inconclusive: 14.1 µM [inhibitor, partial curve] | – |
| Cc1ccc2c(Cl)cc(Cl)c(OCC(=O)NC(C)(C)C)c2n1 | inconclusive: 31.6 µM [inhibitor, single point] | – |
| COc1ccc(-c2nc3ccccc3c(=O)o2)cc1OC | inconclusive: 39.8 µM [inhibitor, single point] | – |
| Cc1cc(C)cc(N(CC(=O)Nc2ccc(-c3nc4ccc(C)cc4s3)cc2)S(C)(=O)=O)c1 | inconclusive: 31.6 µM [inhibitor, partial curve] | – |
| O=C(/C=C/c1ccco1)Nc1ccccc1C(=O)Nc1cccc(C(=O)O)c1 | inconclusive: 39.8 µM [inhibitor, single point] | – |
| O=c1c2c([nH]c3ccccc13)C(=C1CCCC1)CC2 | inconclusive: 28.2 µM [inhibitor, partial curve] | – |
| Cc1cc(-c2cc(C(=O)NCc3ccccc3)on2)nc(NC2CCCC2)n1 | inconclusive: 28.2 µM [inhibitor, single point] | – |
| N#CNC(=Nc1cccc(F)c1)SCc1cccc(F)c1 | inactive | – |
| Cc1cc(S(N)(=O)=O)c(N)c(S(N)(=O)=O)c1 | inconclusive: 28.2 µM [inhibitor, partial curve] | – |
| COc1cc(C)c(CNc2cccc(C)c2)cc1C | inactive | – |
| Cn1c(N)c(C(=O)COC(=O)Cn2cc(C(F)(F)F)ccc2=O)c(=O)n(C)c1=O | inactive | – |
| O=C(/C=C/c1c(Cl)nc2ccccn12)N1CCN(c2ccccc2F)CC1 | inconclusive: 35.5 µM [inhibitor, single point] | – |
| O=C(N/N=C/c1ccc2cccc(OCc3ccccc3)c2n1)c1ccc(Br)cc1 | inconclusive: 3.98 µM [inhibitor, partial curve] | – |
| C=C1SC(=Nc2ccccc2Cl)N(C(=O)c2sc3ccccc3c2Cl)C1(C)C | inactive | – |
| CC(C)NC(=O)CSCc1c(Cl)cccc1Cl | inactive | – |
| Cn1c(SCc2ccc(C(C)(C)C)cc2)nnc1C1COc2ccccc2O1 (stereo not drawn) | inactive | – |
| CC1(C)CC[C@]2(C)CC[C@@]3(C)C(=CCC4[C@@]5(C)CCC(O)C(C)(C)C5CC[C@@]43C)C2C1 (stereo partly drawn) | inactive | – |
| CN(C)c1ccc(/C=N/NC(=O)c2ccc(NC(=O)c3ccccc3)cc2)cc1 | inconclusive: 25.1 µM [inhibitor, single point] | – |
| COC(=O)/C(=C1/Oc2cc(C)oc(=O)c2S1)C(F)(F)F | inactive | – |
| Cc1nc2c(C)cccc2c2c1COC2 | inconclusive: 28.2 µM [inhibitor, single point] | – |

| Structure (SMILES) | Potency | activity change, negative = inhibition |
| --- | --- | --- |
| COc1cc(NS(=O)(=O)c2ccc(NC(=S)NC(=O)c3sc4cc(F)ccc4c3Cl)cc2)nc(OC)n1 | inactive | – |
| Fc1ccccc1CSc1nnc(-c2cnccn2)n1Cc1ccco1 | inactive | – |
| CN(C)S(=O)(=O)c1cccc(NC(=O)c2cc(-c3cccs3)nc3ccccc23)c1 | inconclusive: 28.2 µM [inhibitor, partial curve] | – |
| COC(=O)c1c(C)[nH]c(-c2csc(N)n2)c1C | inactive | – |
| Nc1c(C(=O)Nc2ccc(Br)cc2)sc2nc(-c3ccco3)ccc12 | inconclusive: 7.08 µM [inhibitor, partial curve] | – |
| COc1ccc(C2Nc3ccccc3C(=O)N2C2CCCCC2)cc1 (stereo not drawn) | inconclusive: 28.2 µM [inhibitor, partial curve] | – |
| O=C(O)C1C2CCC(C2)C1C(=O)NCc1ccccn1 (stereo not drawn) | inconclusive: 39.8 µM [inhibitor, single point] | – |
| CCCc1nnc(NC(=O)CC(=O)OCC)s1 | inactive | – |
| Cc1cc(C(=O)Nc2nc3ccc(S(C)(=O)=O)cc3s2)c(C)o1 | inconclusive: 31.6 µM [inhibitor, single point] | – |
| CNc1nnc(-c2ccncc2)s1 | inconclusive: 31.6 µM [inhibitor, partial curve] | – |
| CNC(=O)c1cc(C)c(-c2ccccc2)s1 | inconclusive: 28.2 µM [inhibitor, single point] | – |
| CCc1cccc(CC)c1NC(=S)Nc1ccccc1 | inactive | – |
| Cc1cc2ncn(/N=C/c3ccc([N+](=O)[O-])s3)c2cc1C | inconclusive: 39.8 µM [inhibitor, single point] | – |
| CS(=O)(=O)c1sc2nc(-c3ccccc3)cc(-c3ccccc3)c2c1N | inconclusive: 25.1 µM [inhibitor, partial curve] | – |
| CC(C)c1ccc(C(=O)CSc2ncn[nH]2)cc1 | active: 25.1 µM | – |
| CC(C)CC(=O)NC(=S)Nc1cccc2nsnc12 | inconclusive: 31.6 µM [inhibitor, single point] | – |
| Cc1ccc(-n2c(C)cc(/C=N/NC(=O)c3ccncc3)c2C)cc1C | inconclusive: 25.1 µM [inhibitor, single point] | – |
| O=C(O)Cn1cnc2scc(-c3cccs3)c2c1=O | inconclusive: 8.91 µM [inhibitor, single point] | – |
| Nc1cc(N2CCCC2)c(Cl)cc1[N+](=O)[O-] | inactive | – |
| O=C(NCc1ccco1)c1cc(-c2ccccn2)nc2ccccc12 | inactive | – |
| CCOC(=O)CSC1=C(C#N)C(c2ccccc2)C(C(C)=O)=C(C)N1 (stereo not drawn) | inactive | – |
| CC(C)n1c(=S)[nH]c2ccccc21 | inactive | – |
| O=C(Nc1nc2ccccc2[nH]1)c1cc2ccccc2o1 | inconclusive: 39.8 µM [inhibitor, single point] | – |
